According to the supplement of paper PMC9446081:
Hit rate of the full screen: of about 39,000 compounds, about 220 (0.56%) showed activity. This is one part of the list.
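Also: static incubation at 37 °C against the wild-type strain, values averaged over two biological replicates.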

These compounds were tested on Escherichia coli K-12 BW25113 (assay: relative growth (OD600 normalised to plate interquartile mean) (fraction); higher = less growth inhibition, active = 0.2 or less). Settings: 50 µM; LB; incubation time: overnight (16-24 h).
With `C[C@H]1CN([C@@H](C)CO)C(=O)c2cc(NC(=O)Nc3ccc(F)cc3)ccc2O[C@@H]1CN(C)Cc1ccc(-c2ccccc2)cc1` the relative growth was inactive: 0.98.
With `C[C@@H]1CN([C@H](C)CO)C(=O)Cc2cc(NS(=O)(=O)c3ccccc3)ccc2O[C@@H]1CN(C)S(C)(=O)=O` the relative growth was inactive: 0.985.
With `COc1ccc(cc1)CN1C[C@]2(CCN(CC2)S(=O)(=O)c2cn(cn2)C)c2c([nH]c3cc(ccc23)OC)[C@@H]1CO` the relative growth was inactive: 1.
For `C[C@@H]1CN([C@H](C)CO)C(=O)c2cc(C#CCN(C)C)cnc2O[C@@H]1CN(C)C(=O)CCN1CCCCC1`, the relative growth was inactive: 1.01.
`COc1ccc(S(=O)(=O)N(C)C[C@@H]2Oc3ccc(NS(=O)(=O)c4ccc(F)cc4)cc3C(=O)N([C@H](C)CO)C[C@@H]2C)cc1` was tested, and the relative growth was inactive: 1.04.
For `C[C@H]1CN([C@@H](C)CO)C(=O)c2cc(NC(=O)Nc3ccc(C(F)(F)F)cc3)ccc2O[C@@H]1CN(C)Cc1ccc(C(=O)O)cc1`, the relative growth was inactive: 0.949.
For `C[C@@H]1CN([C@H](C)CO)C(=O)c2cccc(NS(=O)(=O)c3cccs3)c2O[C@@H]1CN(C)S(=O)(=O)c1ccc(F)cc1`, the relative growth was inactive: 1.05.
`C[C@@H]1CN([C@H](C)CO)C(=O)c2cc(NC(=O)C3CCCCC3)ccc2O[C@H]1CN(C)C(=O)Nc1cccc2ccccc12` was tested, and the relative growth was inactive: 1.
For `Cc1noc(C)c1S(=O)(=O)Nc1ccc2c(c1)C(=O)N([C@H](C)CO)C[C@@H](C)[C@@H](CN(C)S(=O)(=O)c1cn(C)cn1)O2`, the relative growth was inactive: 0.979.
For `C[C@H](O)C#Cc1ccc2c(c1)O[C@H](CN(C)C)[C@@H](C)CN([C@H](C)CO)S2(=O)=O`, the relative growth was inactive: 1.03.
`COc1ccc(NC(=O)N(C)C[C@H]2OCCCC[C@H](C)Oc3ccc(NS(=O)(=O)c4ccccc4)cc3C(=O)N([C@@H](C)CO)C[C@@H]2C)cc1` was tested, and the relative growth was inactive: 0.999.
In the case of `C[C@H]1CN([C@@H](C)CO)C(=O)c2cc(NC(=O)Cc3cn(C)c4ccccc34)ccc2O[C@H]1CN(C)C(=O)Nc1cccc2ccccc12`, the relative growth is reported as inactive: 0.99.
For `C[C@@H]1CN([C@H](C)CO)C(=O)c2cccc(NC(=O)c3ccc(-c4nccs4)cc3)c2O[C@H]1CN(C)Cc1ccc(C(=O)O)cc1`, the relative growth was inactive: 0.991.
For `COc1ccc(S(=O)(=O)N(C)C[C@H]2Oc3ccc(NS(=O)(=O)c4c(C)noc4C)cc3CC(=O)N([C@H](C)CO)C[C@H]2C)cc1`, the relative growth was inactive: 1.
`Cc1noc(C)c1NC(=O)N(C)C[C@@H]1OCCCC[C@H](C)Oc2ccc(NC(=O)c3ccccc3)cc2C(=O)N([C@H](C)CO)C[C@@H]1C` was tested, and the relative growth was inactive: 0.98.
In the case of `CC(=O)OC[C@H]1O[C@@H](n2ccc(=O)[nH]c2=O)[C@H](OC(C)=O)[C@@H]1OC(C)=O`, the relative growth is reported as inactive: 0.99.
In the case of `COc1ccccc1C#Cc1ccc2c(c1)O[C@H](CN(C)C(C)=O)[C@H](C)CN([C@@H](C)CO)S2(=O)=O`, the relative growth is reported as inactive: 1.02.
`CC(C)N1CC=C[C@@]23O[C@@H]4C=CCOC(=O)[C@@H]4[C@H]2C(=O)N(CCCO)[C@@H]3C1=O` was tested, and the relative growth was inactive: 0.999.
`C=CC[C@@H](CC(=O)N(CCO)Cc1ccccc1)C(=O)NCCOC(=O)[C@@H](CC=C)CC(=O)OC(C)(C)C` was tested, and the relative growth was inactive: 0.982.
For `COc1cccc(C(=O)Nc2ccc3c(c2)C(=O)N(C)[C@@H]2CC[C@@H](CC(=O)NCC(F)(F)F)O[C@H]2CO3)c1`, the relative growth was inactive: 1.01.
In the case of `CN(C)CCCNC(=O)C[C@H]1CC[C@@H](NS(=O)(=O)c2ccccc2)[C@@H](CO)O1`, the relative growth is reported as inactive: 1.01.
With `C[n+]1c2cc(N)ccc2cc2ccc(N)cc21.[Cl-]` the relative growth was inactive: 0.659.
With `COc1ccc(CN(C)C[C@H]2Oc3ccc(NC(=O)CCN4CCOCC4)cc3C(=O)N([C@@H](C)CO)C[C@H]2C)cc1` the relative growth was inactive: 0.988.
For `C[C@H](CO)N1C[C@H](C)[C@@H](CN(C)S(=O)(=O)c2ccccc2)Oc2ccc(NS(=O)(=O)c3cccs3)cc2CC1=O`, the relative growth was inactive: 1.01.
For `COc1ccccc1C#Cc1cnc2c(c1)C(=O)N([C@@H](C)CO)C[C@H](C)[C@H](CN(C)C(=O)c1ccc3c(c1)OCO3)O2`, the relative growth was inactive: 0.988.
`CN1CCN(C(=O)C[C@H]2CC[C@@H]3[C@H](COC[C@@H](O)CN3S(=O)(=O)c3cccc(F)c3)O2)CC1` was tested, and the relative growth was inactive: 1.03.
In the case of `O=C(C[C@H]1CC[C@H]2[C@@H](COC[C@H](O)CN2C(=O)Nc2ccc(F)cc2)O1)NCCCN1CCOCC1`, the relative growth is reported as inactive: 0.96.
`C#CC1(O)CCC2C3CCC4=Cc5oncc5CC4(C)C3CCC21C` (stereo unspecified) was tested, and the relative growth was inactive: 1.11.
`COc1ccc(NC(=O)N(C)C[C@@H]2Oc3c(NS(C)(=O)=O)cccc3C(=O)N([C@@H](C)CO)C[C@H]2C)cc1` was tested, and the relative growth was inactive: 0.998.
In the case of `COc1ccc(S(=O)(=O)N(C)C[C@H]2Oc3ccc(NC(=O)Nc4c(C)noc4C)cc3CC(=O)N([C@@H](C)CO)C[C@H]2C)cc1`, the relative growth is reported as inactive: 0.993.
In the case of `C[C@H]1CN([C@@H](C)CO)C(=O)Cc2cc(NC(=O)Nc3cccc4ccccc34)ccc2O[C@@H]1CN(C)Cc1ccc(C(=O)Nc2ccccc2N)cc1`, the relative growth is reported as inactive: 1.02.
For `Cc1ccc(S(=O)(=O)Nc2ccc3c(c2)C(=O)N([C@@H](C)CO)C[C@H](C)[C@@H](CN(C)Cc2ccc(C(F)(F)F)cc2)O3)cc1`, the relative growth was inactive: 0.988.
With `C[C@@H]1CN([C@H](C)CO)C(=O)Cc2cc(NC(=O)CCN3CCOCC3)ccc2O[C@@H]1CN(C)S(=O)(=O)c1ccc(Cl)cc1` the relative growth was inactive: 1.01.
`C[C@H](CO)N1C[C@H](C)[C@@H](CN(C)Cc2ccncc2)OCCCC[C@H](C)Oc2ccc(NC(=O)Cc3ccccc3)cc2C1=O` was tested, and the relative growth was inactive: 0.995.
`C[C@H](CO)N1C[C@H](C)[C@H](CN(C)C(=O)Nc2ccccc2)OCCCC[C@H](C)Oc2ccc(NC(=O)CCC(F)(F)F)cc2C1=O` was tested, and the relative growth was inactive: 1.04.
`COc1cc2c(cc1OC)CN(C(=O)[C@@H]1[C@H]3C(=O)O[C@H](c4ccccc4)[C@H](c4ccccc4)N3[C@H](c3ccc(OCCO)cc3)[C@@]13C(=O)Nc1ccc(C#CCCO)cc13)CC2` was tested, and the relative growth was inactive: 1.08.
